Experimental findings from the RNAGym collection of RNA variant scans (doi:10.7554/elife.90254) are described below.

The labels stand for the following.
B1: LINE1-mini (parent)
chain: GGCAGAGCUCAACACAGCGUGGCAAAGUGGCUGUGGCUAGACUGCC

Read counts are not given, so values of variants with three or more changes are uncertain.

Variants of B1 are the subject of this series. The series is described as follows: self-cleavage, relative activity (ratio to wild type); higher = more cleavage; in vitro, sequencing; the parent is a self-cleaving ribozyme.
In the case of GGCAGAGCUAAACUCCGCGUGGCAAAGUGUCUGUGGCUAGACUGCC [C10A A14U A16C G30U], the self-cleavage stood at 0.01.

For the variant GGCAGAGCUAAGCACAGCGUGGCAAAGUGGCCGUGGCUAGACUGCC [C10A A12G U32C], the self-cleavage was 0.01.

On to GGCAGAGCUAGACACAGCGUGUCAAAGUGGCUGUGGCUAGACAGCA [C10A A11G G22U U43A C46A], for which the self-cleavage came to 0.

For GGCAGAGCUAAUCACAGCGCGGCAAAGUGGCAGUGGCUAGACUGCU [C10A A12U U20C U32A C46U], the self-cleavage is 0.

Regarding GGCAGAGCUACACGCAGCCUGGCAAAGUGGCUCUGGCUCGACUGCC [C10A A11C A14G G19C G33C A39C], the self-cleavage was 0.01.

GGCAGAGCGCAACACAGCGAGGCAAAUUGGCGGUGGCUAGACUGCC [U9G U20A G27U U32G]: the self-cleavage is 0.03.

Consider GGCAGAGCUAAGCACACCGUGGCAAAGUGGCUGUGACUAGACUGCU [C10A A12G G17C G36A C46U], for which the self-cleavage is 0.04.

GGCAGAGCUAACCAGAGCGUGACAAACUGGCUGUGGCUAGACUGCC [C10A A12C C15G G22A G27C]: the self-cleavage came to 0.02.

In the case of GGCAGAGCUAAACGCAGCGUGGCAAAGUGGCUGUGGCUAGACUGUC [C10A A14G C45U], the self-cleavage was 0.01.

For the variant GGCAGAGCUACACACAGCGUGGUUAAGUGGCUGUGGCUAGACUGCC [C10A A11C C23U A24U], the self-cleavage was determined as 0.01.

With GGCAGAGCUAAACCCAGCGUGCCAAAGUGGCAGUGGCUAGACUGCC [C10A A14C G22C U32A], the self-cleavage was 0.01.

On to GGCAGAGCUAACCACCGCGUGGAAAAGUGGCUGUGGCUAGACUGCC [C10A A12C A16C C23A], for which the self-cleavage was found to be 0.02.

GGCAGAGCUAAACCCAUCGUGGCAAAGUGUCUGUGGCUAGACUGCC [C10A A14C G17U G30U]: the self-cleavage is 0.

On to GGCAGAGCUAGACAAAGCGUGGCAAAGUGGCUGUGGCUAGACUGCC [C10A A11G C15A], for which the self-cleavage was determined as 0.03.

As to GGCAGAGCUAAACCCAACGUGGCAAAGUGGCUGUGGCUAGACUGCC [C10A A14C G17A], the self-cleavage stood at 0.04.

Consider GGCAGAGCUAAUCACAGCGUGGCAAAGCGGCUGUGACUACACCGCC [C10A A12U U28C G36A G40C U43C], for which the self-cleavage amounted to 0.

For the variant GGCAGAGCUAAUCACAGCGUGGCAAAGUGGCUGUGGCCAGACUGUC [C10A A12U U38C C45U], the self-cleavage was 0.01.

Regarding GGCAGAGCGCAACACAGCGUGGCAAAGUGGCUGUGCCUAGACUGCA [U9G G36C C46A], the self-cleavage amounted to 0.04.

In the case of GGCAGAGCUAGACACUGCGUGGCAAAGUGGCUGUGGCUAGACUGCC [C10A A11G A16U], the self-cleavage worked out at 0.03.

Regarding GGCAGAGCUAACCACCGCGUGGCAAAGUGGCUGUGGCUUGACUGCC [C10A A12C A16C A39U], the self-cleavage was found to be 0.01.

Turning to GGCAGAGCUAAACGGAGCGUGGCAAAGUGGCUGUAGCUAGACUGCA [C10A A14G C15G G35A C46A], the self-cleavage amounted to 0.01.

As for GGCAGAGCUAAUGACAGCGUGGCAAAGUGCCUGUGGCUAGACUGCC [C10A A12U C13G G30C], the self-cleavage turned out to be 0.04.

As for GGCAGAGCUAAUCACAGCGUGGCAAAUUGGCUGUAGCUAGACUGCC [C10A A12U G27U G35A], the self-cleavage was 0.03.

Consider GGCAGAGCUAACCACAUCCUGGCAAAGUGGCAGUGGCUAGACUGCC [C10A A12C G17U G19C U32A], for which the self-cleavage is 0.

Take GGCAGAGCGCAACACAGCGUGGCAAAGCCGCUGUGGCUAGACUGCC [U9G U28C G29C]: the self-cleavage stood at 0.03.

Regarding GGCAGAGCGCAACACAGCGUGGCAAAGUGGCUCUGGCUAGUCUACU [U9G G33C A41U G44A C46U], the self-cleavage came to 0.04.

With GGCAGAGCGCAACACAGCGUGGCAAAGUGGCCGUCGCUAAACUGCC [U9G U32C G35C G40A], the self-cleavage came to 0.09.

For the variant GGCAGAGCGCAACACAGCGUGGCAAAGUGGCUGUGUUUAGACUGCC [U9G G36U C37U], the self-cleavage turned out to be 0.03.

With GGCAGAGCGCAACACAGCGACGCAAAGUGGCUGUCGCUAGACGGCC [U9G U20A G21C G35C U43G], the self-cleavage was 0.03.

Take GGCAGAGCUAAACCCAGCUUGGCAAUGUGGCUGUGGCUAGACUGCC [C10A A14C G19U A26U]: the self-cleavage was found to be 0.01.

As for GGCAGAGCGCAACACAGCGUGGCAAAGUGGCUGUUUCUAGAAUGAC [U9G G35U G36U C42A C45A], the self-cleavage came out at 0.09.

As to GGCAGAGCUAGACACAGCGGGGCAAAGUGGCUGUGGCUAGACUGCC [C10A A11G U20G], the self-cleavage is 0.02.

Turning to GGCAGAGCUAAACGCAGCGUGGCAAAUUGGCUGUGGCUAGACUGCC [C10A A14G G27U], the self-cleavage stood at 0.04.

GGCAGAGCUAAGCACAGCGUGGAAAAGUGGCUGUGGCUAAACUCCC [C10A A12G C23A G40A G44C]: the self-cleavage turned out to be 0.01.

As for GGCAGAGCGCAACACAGCGUGGCAAAGUGACCGUGGCUAGAUUGCC [U9G G30A U32C C42U], the self-cleavage worked out at 0.04.

In the case of GGCAGAGCGCAACACAGCGAGGCAAAGUCGCUGUGGCUAGACUGCC [U9G U20A G29C], the self-cleavage worked out at 0.01.

With GGCAGAGCUAACCACAGCGUGGCAAAGUGCCUGUGGCUAGCCUGCC [C10A A12C G30C A41C], the self-cleavage was 0.02.

For the variant GGCAGAGCUAAGCACAGCGUGUCAAAGUCGCUGUGGCUAGGCUGCC [C10A A12G G22U G29C A41G], the self-cleavage worked out at 0.

GGCAGAGCGCAACACAGCGGGGCAAAGUGGCUGUGGCUAGACUGUC [U9G U20G C45U]: the self-cleavage was determined as 0.37.

Regarding GGCAGAGCUAAACCCAGCGUGGCAAAGUCGCUGUGGCUAGUAUACA [C10A A14C G29C A41U C42A G44A C46A], the self-cleavage worked out at 0.

In the case of GGCAGAGCUAAGCACAGCGUUGCAAAGUGGUUGUGGCUAGACUCCC [C10A A12G G21U C31U G44C], the self-cleavage is 0.01.

As to GGCAGAGCGCAACACAGCGUGGCAAAGUGGCUGGGGCUAGAAUGCC [U9G U34G C42A], the self-cleavage was found to be 0.07.

For GGCAGAGCUAGUCACAGCGUGGCAAAGGGGCUGUGGCCAGACUGCC [C10A A11G A12U U28G U38C], the self-cleavage came to 0.

For the variant GGCAGAGCUAUACACAGAGUGGCAAAGGGGCUGUGGCUAGACUGCC [C10A A11U C18A U28G], the self-cleavage came to 0.02.

With GGCAGAGCUAAACCCAGCGUGGCAAAGUGGCUGUGGCUCGACUGCC [C10A A14C A39C], the self-cleavage amounted to 0.02.

Regarding GGCAGAGCUAAACUCAGGGUGGCAAAGUGGCUGUGGCUAGACAGCC [C10A A14U C18G U43A], the self-cleavage is 0.

Turning to GGCAGAGCUAUACACAGCGUGGGACAGUGGCUGUGGCAAGACUGCC [C10A A11U C23G A25C U38A], the self-cleavage turned out to be 0.03.

Take GGCAGAGCUAAACCCAGCGUGGUAAAGUGGCUGUGGCUAGACUGCC [C10A A14C C23U]: the self-cleavage amounted to 0.01.

Take GGCAGAGCGCAACACAGCGCGGCAAAGUGGAUGUGGCUAGACUGCC [U9G U20C C31A]: the self-cleavage came to 0.05.

For GGCAGAGCUAAUCACAGCGCGGCAAAGUGGCUGUGGCUAGACUGCC [C10A A12U U20C], the self-cleavage worked out at 0.04.

GGCAGAGCGCAACACAGCGUGGCAAAGUGGCUUUGGCUAGACUGUC [U9G G33U C45U]: the self-cleavage is 0.09.

As for GGCAGAGCUAAGUACAGCGUGGCAAAGUGGCUGUGGCUAGACUGCC [C10A A12G C13U], the self-cleavage was determined as 0.03.

As for GGCAGAGCUAAGAACAGCGUGGCAAAGUGGCUGUGGCUAGACUGCC [C10A A12G C13A], the self-cleavage came to 0.03.

For GGCAGAGCGCAACACAGCGUGGCAAAGGGGCUGUGGCUCGACUGCC [U9G U28G A39C], the self-cleavage was found to be 0.09.

GGCAGAGCGCAACACAGCGUGGCAAAGUCGCUGUGACUAGACUGCC [U9G G29C G36A]: the self-cleavage came out at 0.08.

Consider GGCAGAGCGCAACACAGCGUGGCAAAGUGGCUGUGACUAGCCUGCC [U9G G36A A41C], for which the self-cleavage was determined as 0.03.
